{"source": "paper PMC4336329", "about": "(PLoS ONE, 2015)", "note": "The campaign covered roughly 310,000 compounds. About 2,200 (0.71%) showed an effect of 50% or more. Effects have a minus sign here. The list shows a part of the results.", "data": [{"molecular_target": "human ether-à-go-go-related gene (hERG) potassium channel (human, UniProt Q12809)", "sequence (Q12809 whole entry, looked up)": "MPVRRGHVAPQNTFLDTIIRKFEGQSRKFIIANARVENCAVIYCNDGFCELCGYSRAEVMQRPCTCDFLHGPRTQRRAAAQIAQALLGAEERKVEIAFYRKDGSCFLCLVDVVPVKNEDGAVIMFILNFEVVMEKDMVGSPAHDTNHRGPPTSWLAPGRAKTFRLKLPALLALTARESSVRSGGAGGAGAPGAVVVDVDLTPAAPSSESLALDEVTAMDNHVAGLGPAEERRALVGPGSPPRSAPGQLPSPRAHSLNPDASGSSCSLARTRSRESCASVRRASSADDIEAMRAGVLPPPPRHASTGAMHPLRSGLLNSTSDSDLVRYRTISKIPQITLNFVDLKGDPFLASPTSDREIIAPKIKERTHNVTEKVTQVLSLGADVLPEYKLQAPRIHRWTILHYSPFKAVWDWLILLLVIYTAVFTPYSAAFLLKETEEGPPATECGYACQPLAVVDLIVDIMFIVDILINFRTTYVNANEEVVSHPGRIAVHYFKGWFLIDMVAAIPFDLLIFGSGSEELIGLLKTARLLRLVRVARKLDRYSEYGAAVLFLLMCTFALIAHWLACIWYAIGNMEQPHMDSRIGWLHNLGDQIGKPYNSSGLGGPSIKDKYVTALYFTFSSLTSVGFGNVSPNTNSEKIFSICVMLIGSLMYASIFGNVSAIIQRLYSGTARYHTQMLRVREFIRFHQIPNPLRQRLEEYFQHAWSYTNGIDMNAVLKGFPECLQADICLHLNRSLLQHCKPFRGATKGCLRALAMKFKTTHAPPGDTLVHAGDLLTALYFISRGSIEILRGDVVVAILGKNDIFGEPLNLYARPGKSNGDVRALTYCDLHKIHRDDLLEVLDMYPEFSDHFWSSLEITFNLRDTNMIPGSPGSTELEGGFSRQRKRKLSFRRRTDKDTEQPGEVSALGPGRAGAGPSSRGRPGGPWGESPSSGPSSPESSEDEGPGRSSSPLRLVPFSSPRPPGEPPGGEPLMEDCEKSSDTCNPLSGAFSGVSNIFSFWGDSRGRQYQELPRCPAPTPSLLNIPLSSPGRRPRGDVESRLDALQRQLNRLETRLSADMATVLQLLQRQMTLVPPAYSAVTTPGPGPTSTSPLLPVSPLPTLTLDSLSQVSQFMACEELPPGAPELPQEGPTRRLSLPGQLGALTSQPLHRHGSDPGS", "assay": "primary screen, population patch clamp on CHO cells stably expressing hERG", "units": {"hERG current change (%, negative = inhibition) at 1uM": "%"}, "values": [{"smiles": "CCn1c(NCc2ccc(N(C)C)cc2)nc2ccccc21", "hERG current change (%, negative = inhibition) at 1uM": -11.3}, {"smiles": "O=C(NCc1ccncc1)/C(=C/c1cccc([N+](=O)[O-])c1)NC(=O)c1ccccc1", "hERG current change (%, negative = inhibition) at 1uM": -31.2}, {"smiles": "O=C(CCc1nnc(COc2ccccc2)o1)NCc1ccccc1", "hERG current change (%, negative = inhibition) at 1uM": 12.9}, {"smiles": "CC1(C)C(c2cccs2)=[N+]([O-])C2(CCCCC/C2=N\\O)N1O", "note": "(centres unmarked)", "hERG current change (%, negative = inhibition) at 1uM": 12.7}, {"smiles": "CSCC[C@@H](C(=O)NCc1cccs1)N1Cc2ccccc2C1=O", "hERG current change (%, negative = inhibition) at 1uM": 3.43}, {"smiles": "COC(=O)C(O)(c1ccc(N(C)C)cc1)C(F)(F)F", "note": "(centres unmarked)", "hERG current change (%, negative = inhibition) at 1uM": 11.5}, {"smiles": "NNC(=S)Nc1ccc(OC(F)(F)F)cc1", "hERG current change (%, negative = inhibition) at 1uM": 11.3}, {"smiles": "CNC(=O)CN1C(=O)C2C3C=CC(C3)C2C1=O", "note": "(centres unmarked)", "hERG current change (%, negative = inhibition) at 1uM": 7.77}, {"smiles": "COc1ccccc1NS(=O)(=O)c1cc(C(=O)NCCC(C)C)ccc1F", "hERG current change (%, negative = inhibition) at 1uM": -1.98}, {"smiles": "CC(C)CCNC(=O)CN(Cc1ccc2c(c1)OCO2)C(=O)Cn1nnc(-c2cccs2)n1", "hERG current change (%, negative = inhibition) at 1uM": 3.51}, {"smiles": "Cc1ccccc1C1CCCN(C(=O)c2cc(COc3c(F)cccc3F)on2)C1", "note": "(centres unmarked)", "hERG current change (%, negative = inhibition) at 1uM": 11.3}, {"smiles": "Cc1ccc2nc3c(cc(C(=O)NCCc4ccccc4)c(=N)n3CC3CCCO3)c(=O)n2c1", "note": "(centres unmarked)", "hERG current change (%, negative = inhibition) at 1uM": -84}, {"smiles": "C/C=C/C(=O)N1CC2(CC(c3cccc(NC(=O)CC(c4ccccc4)c4ccccc4)c3)=NO2)C[C@H]1C(N)=O", "note": "(some centres unmarked)", "hERG current change (%, negative = inhibition) at 1uM": 12.2}, {"smiles": "Cn1c(=O)c2c(=O)cc(NNC(=O)C(C)(C)C)[nH]c2n(C)c1=O", "hERG current change (%, negative = inhibition) at 1uM": 8.35}, {"smiles": "O=C(Nc1ccc(F)c(Cl)c1)c1cccnc1", "hERG current change (%, negative = inhibition) at 1uM": -27.9}, {"smiles": "CCN1CCCC1CNS(=O)(=O)c1ccc(Br)cc1.Cl", "note": "(centres unmarked)", "hERG current change (%, negative = inhibition) at 1uM": -5.39}, {"smiles": "Cc1cc2nc(C3CCN(Cc4nnnn4Cc4ccccc4)CC3)[nH]c2cc1C", "hERG current change (%, negative = inhibition) at 1uM": -50.7}, {"smiles": "Cc1ccc(S(=O)(=O)Nc2c(C)nn(C)c2C)cc1", "hERG current change (%, negative = inhibition) at 1uM": 4.3}, {"smiles": "N#Cc1c(-c2ccco2)ccn(Cc2ccc(F)cc2)c1=O", "hERG current change (%, negative = inhibition) at 1uM": 2.5}, {"smiles": "CCc1nnc(NC(=O)CSc2nc3c(c(=O)n2CC)SC(C)C3)s1", "note": "(centres unmarked)", "hERG current change (%, negative = inhibition) at 1uM": 14.2}, {"smiles": "O=C(CCC(=O)NCCCc1ccccc1)NCCCc1ccccc1", "hERG current change (%, negative = inhibition) at 1uM": 13.2}, {"smiles": "CC(C)CNS(=O)(=O)c1ccc(CCC(=O)Nc2ccc3c(c2)OCO3)cc1", "hERG current change (%, negative = inhibition) at 1uM": 6.96}, {"smiles": "CC(=O)N/C(=C\\c1ccc(C)o1)C(=O)NCc1ccccc1", "hERG current change (%, negative = inhibition) at 1uM": 9.09}, {"smiles": "CCCC1(C(=O)OCC)NC(c2ccc(N(C)C)cc2)C2C(=O)N(c3ccc(OCC)cc3)C(=O)C21", "note": "(centres unmarked)", "hERG current change (%, negative = inhibition) at 1uM": 1.19}, {"smiles": "Cc1cc(OCc2ccc(C(=O)NN=C3CCCC3)cc2)ccc1Cl", "hERG current change (%, negative = inhibition) at 1uM": 6.91}, {"smiles": "Cc1cccc(NC(=O)c2nc[nH]c2C(=O)N[C@@H](CC(C)C)C(=O)OC(C)(C)C)c1", "hERG current change (%, negative = inhibition) at 1uM": 15.1}, {"smiles": "Cc1ccc[n+](C(C)C(=O)c2ccc(Cl)cc2)c1.[Br-]", "note": "(centres unmarked)", "hERG current change (%, negative = inhibition) at 1uM": 14.7}, {"smiles": "CCOCCCN1CC(C(=O)NCc2ccc3c(c2)OCO3)CC1=O", "note": "(centres unmarked)", "hERG current change (%, negative = inhibition) at 1uM": 9.3}, {"smiles": "CCN(CC)c1ccc(-c2sc(Nc3ccccc3)n[n+]2-c2ccc(F)cc2)cc1.[Cl-]", "hERG current change (%, negative = inhibition) at 1uM": -9.37}, {"smiles": "Cc1ccc(CNC(=O)CSc2ncn[nH]2)cc1", "hERG current change (%, negative = inhibition) at 1uM": 19}, {"smiles": "CCCC(=O)Nc1ccc2oc(-c3ccc(OC)c(Br)c3)nc2c1", "hERG current change (%, negative = inhibition) at 1uM": 15.8}, {"smiles": "O=[N+]([O-])c1ccccc1N/N=C/c1c[nH]c2ccccc12", "hERG current change (%, negative = inhibition) at 1uM": 13.8}, {"smiles": "CN(CCCN1CCCCC1)C(=O)c1cc(COc2ccc(F)cc2F)on1", "hERG current change (%, negative = inhibition) at 1uM": -7.96}, {"smiles": "O=c1[nH]c(N/N=C/c2ccccc2)nc2ccccc12", "hERG current change (%, negative = inhibition) at 1uM": -4.64}, {"smiles": "CN(c1ccccc1)S(=O)(=O)c1cccc(NC(=O)COc2cccc([N+](=O)[O-])c2)c1", "hERG current change (%, negative = inhibition) at 1uM": -10.2}, {"smiles": "CCOC(=O)c1c(C)n(C)c2ccc(OC)c(NC(=O)CN3CCC(C(=O)OCC)CC3)c12", "hERG current change (%, negative = inhibition) at 1uM": 3.42}, {"smiles": "Cc1[nH]c2ccccc2c1SCC(=O)N1CCCCCC1", "hERG current change (%, negative = inhibition) at 1uM": 1.1}, {"smiles": "COc1cccc(/C=C/C(=O)OCC(=O)NCCNC(=O)COC(=O)/C=C/c2cccc(OC)c2)c1", "hERG current change (%, negative = inhibition) at 1uM": 10.7}, {"smiles": "Cc1cc(NC(=O)CSc2nc3c(c(=O)n2-c2ccc(Cl)cc2)SCC3)no1", "hERG current change (%, negative = inhibition) at 1uM": -1.73}, {"smiles": "CC(C)n1cnnc1SCC(=O)Nc1ccc(Br)cc1F", "hERG current change (%, negative = inhibition) at 1uM": 10.9}, {"smiles": "O=C(CCS(=O)(=O)c1ccccc1)Nc1ccccn1", "hERG current change (%, negative = inhibition) at 1uM": 16.8}, {"smiles": "O=C(O)CCC(=O)Nc1ccc(F)cc1", "hERG current change (%, negative = inhibition) at 1uM": 9.35}, {"smiles": "CCn1c(SCC(=O)Nc2nc3ccc(OC)cc3s2)nnc1-c1ccoc1C", "hERG current change (%, negative = inhibition) at 1uM": 7.83}, {"smiles": "O=C(OCc1ccc(F)cc1)c1ccc2ccccc2n1", "hERG current change (%, negative = inhibition) at 1uM": -15}, {"smiles": "CCn1c(C(C)NC(C)=O)nc2ccccc21", "note": "(centres unmarked)", "hERG current change (%, negative = inhibition) at 1uM": 9.51}, {"smiles": "COC(=O)C1=C(C)N(Cc2ccccc2)C(=NCCc2cccnc2)N[C@H]1c1ccccc1", "hERG current change (%, negative = inhibition) at 1uM": -23.2}, {"smiles": "C=CCc1ccc(OCCOc2cccc3ccc(C)nc23)c(OC)c1.O=C(O)C(=O)O", "hERG current change (%, negative = inhibition) at 1uM": 9.57}, {"smiles": "CCNC(=S)NNC(=O)c1cc(C)nc2ccccc12", "hERG current change (%, negative = inhibition) at 1uM": 5.65}, {"smiles": "COc1ccccc1C1CCN(c2cc(O)ccc2[N+](=O)[O-])CC1", "hERG current change (%, negative = inhibition) at 1uM": 9.54}, {"smiles": "O=C(Nc1ccc(O)cc1)C1CCCO1", "note": "(centres unmarked)", "hERG current change (%, negative = inhibition) at 1uM": 12.5}, {"smiles": "COc1cc(/C=N/NC(=O)c2c(C)nnn2-c2nonc2N)ccc1O", "hERG current change (%, negative = inhibition) at 1uM": 2.94}, {"smiles": "Cc1ccc(NC(=O)COC(=O)c2ccc([N+](=O)[O-])o2)cc1S(=O)(=O)N1CCCCCC1", "hERG current change (%, negative = inhibition) at 1uM": 3.92}, {"smiles": "CNC(=O)CNC(=O)Nc1ccc(C)cc1", "hERG current change (%, negative = inhibition) at 1uM": 9.47}, {"smiles": "Cl.O=C(O)c1ccc(Nc2nc(-c3cccnc3)nc3ccccc23)cc1", "hERG current change (%, negative = inhibition) at 1uM": 11.7}, {"smiles": "O=C(NCCC1=CCCCC1)C1CCN(S(=O)(=O)c2cccc3cccnc23)CC1", "hERG current change (%, negative = inhibition) at 1uM": 5.01}, {"smiles": "O=C(COC(=O)c1cccc(O)c1)NCc1ccc2c(c1)OCO2", "hERG current change (%, negative = inhibition) at 1uM": 9.24}]}]}
